Measured values: patent publication US10350218B2, “Isoquinolidinobenzodiazepine (IQB)-1(chloromethyl)-2,3-dihydro-1H-benzo[e]indole (CBI) dimers” (priority 2016, dated 2019)

B1: hu3G7-D816 (conjugate)
heavy: EVQLVQSGAEVKKPGASVKISCKASGYTFTNYGMHWVRQAPGQGLEWMGWINTYTGEPTYAQKFQGRFTFTLDTSTSTAYLEIRSLRSDDTAVYYCARYYGNFDYWGQGTLLTVSSASTKGPSVFPLAPSSKSTSGGTAALGCLVKDYFPEPVTVCWNSGALTSGVHTFPAVLQSSGLYSLSSVVTVPSSSLGTQTYICNVNHKPSNTKVDKKV[human IgG1 Fc cut from this listing]
light: EIVMTQSPATLSVSPGERATLSCRASQSISNNLHWYQQKPGQAPRLLIYYASQSISGIPARFSGSGSGTEFTLTISSLQSEDFAVYYCQQSHNWPHTFGQGTKLEIKRTVAAPSVFIFPPSDEQLKSGTASVVCLLNNFYPREAKVQWKVDNALQSGNSQESVTEQDSKDSTYSLSSTLTLSKADYEKHKVYACEVTHQGLSSPVTKSFNRGEC
B2: hu3G7-D818 (conjugate)
heavy: B1 heavy
light: B1 light

Tested on: HL-60 cells, EOL1 cells and SK-MEL-5 cells (IL1RAP expressing)
Test: Target dependent cytotoxicity of anti-IL1RAP 3G7-(IQB-CBI) ADCs
Assay type: cell-based, human
Settings: HL-60, EOL1, SK-MEL-5 cells; varying concentrations, 37° C., five days; compared with non-binding control ADC
Method: The selectivity of ADCs comprising Chi3G7 anti-IL1RAP chimeric antibody (human constant domain, mouse variable domain) and various IQB-CBI dimer linker-payloads (D816, D818, D820, D822, D826, D824, D828) is shown in FIGS. 17-23. HL-60 cells, EOL1 cells and SK-MEL-5 cells (human melanoma cell line) were treated with the IL1RAP -selective cytotoxic antibody-drug conjugate, Chi3G7-(IQB-CBI) ADC and the control antibody-drug conjugate, C0-(IQB-CBI) ADC or C0-D212 ADC, at varying concentrations at 37° C. for five days.
Cytotoxicity of Chi3G7-CLT-(IQB-CBI) or Hu3G7-CLT-(IQB-CBI) ADC and a non-binding control ADC were tested in cell lines expressing or not expressing IL1RAP. EOL1 cells express high copy number of IL1RAP, whereas HL60 and SK-MEL-5 cells express low copy number of IL1RAP.

Molecule | target dependent cell killing
B1 | target dependent cell killing
B2 | target dependent cell killing
